Over roughly 81,000 sequences, “one-hybrid fitness for binding parS DNA” has its median near -0.17; the highest 2% begin near 0.51. The list shows a part of the results.
B1: Caulobacter ParB omega fusion; a variant is named by its letters at X, in order, B8GW30 (parent)
chain: MESVVVGEPGMSEGRRGLGRGLSALLGEVDAAPAQAPGEQLGGSREAPIEILQRNPDQPRRTFREEDLEDLSNSIREKGVLQPILVRPSPDTAGEYQIVAGERAWRAAQRAGLKTVPIMVRELDDLAVLEIGIIENVQRADLNVLEEALSYKVLMEKFERTQENIAQTIGKSXSHVANXMRLLXLPDEVQSYLVSGELTAXHARAIAAAADPVALAKQIIEGGLSVRETEALARKAPNLSAGKSKGGRPPRVKDTDTQALESDLSSVLGLDVSIDHRGSTGTLTITYATLEQLDDLCNRLTRGI

Variants of: B1
Experiment: one-hybrid fitness for binding parS DNA (scaled: cognate 1, non-cognate 0); higher = stronger binding
Conditions: with parS DNA site
Method in brief: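 Fitness is the rescaled log change in variant-to-wild-type read ratio, measured by Illumina sequencing of plasmids before and after bacterial one-hybrid selection. The scale puts cognate at 1 and non-cognate at 0. Selection of Caulobacter ParB libraries, four specificity codons randomised, took place in E. coli USO with a HIS3 reporter, site 19 bp from the promoter, over 48 hours at 37°C on M9-minus-histidine with 0.1 mM IPTG and 5 mM 3-AT.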

one-hybrid fitness for binding parS DNA, 1.04:
RMVS

one-hybrid fitness for binding parS DNA, 0.201:
MDMC

one-hybrid fitness for binding parS DNA, 0.277:
RTHF

one-hybrid fitness for binding parS DNA, 0.216:
RVYD

one-hybrid fitness for binding parS DNA, 1.03:
RLWS

one-hybrid fitness for binding parS DNA, ≤ 0.2:
HWLC
DGKI
PPTE
WWIG
CSVS
SIQW
PGYF
FATC
FRPM
DVNS
ANGS
AVDY
PGYD
TGEE
WVRR
GAGP
PRRT
MGMC
QEVR
KDLI
PIDY
HPMC
RLLE
PMMG
SIQQ
PWEY
CIDV
PSPN
KVVL
QFLV
HMRL
CLGG
PCSA
LALA
DYVT
EHDR
RPVV
FTFC
SMQG
ILWG
QSPA
PTPH
NHRC
MSDP
VDRV
TKMR
PQWL
QQTH
EESS
YKWG
NKCC
CLKV
GLDF
TVKM
ECNT
NYSC
KADR
MLYT
VVRR
NRPS
CRTY
TPMM
LACT
SRDF
VWCR
QWRA
FLAM
CFQI
IRWS
AAHY
TSEK
WIIL
YLQI
RKMI
CDKV
SWWG
KNKG
CNHL
RHGP
INCT
YGMC
LSAT
HTTL
QTRS
KGML
GVEH
RFDD
SHPT
VYAC
ITTL
CKWR
TEPD
GALA
PTKF
PGIV
MVIS
PPPQ
AKCR
GSLP
QLMC
VHYA
TQPG
GFSC
VEMC
LQLM
ANLT
SCNL
PHHH
PRFA
NWTY
CWPV
TGTS
EWRR
LQKN
DMKC
YVRS
QAGH
RMTV
KLDS
PAFN
NVQC
YGLR
LTQT
QELS
MYNC
TFQT
QNNL
NTTL
LNLA
SIPG
FYYT
PSVT
RSWK
QVVC
GAAW
SPIH
IPAG
GLQS
WYLY
TGNI
TVVM
YNSR
PQCR
ESTV
VVES
GKAT
NSGR
APIS

Reference: a collection of fitness landscapes (doi:10.1016/j.celrep.2020.107928)
